PubChem BioAssay AID1671194 (National Center for Advancing Translational Sciences (NCATS), 2021)
In all, about 140,000 compounds went through this assay and about 240 (0.17%) were called active. Inconclusive results, whose numbers are uncertain, are shown with a selection of clear calls. Calls follow the shape of the dose curve; as a rule, active = well fitted inhibition curve with a large enough effect; inconclusive = small, poorly fitted or top-dose-only effect; inactive = no such curve, though single readings can be large or run the other way. A potency beside an inconclusive call is a rough fit, not a confirmed value.
Potency is read from the fitted curve at half-maximal effect; tags tell the direction and shape of the fitted curve.

Assay: Primary qHTS assay for inhibitors of alpha-synuclein gene (SNCA) expression; also: nearly all actives have a fitted effect of over 45% in size
Conditions: HEK-293 SNCA-luciferase knock-in, luminescence, 24 h; series mostly up to 57.2 µM
In the case of CCCn1cc(-c2ccnc(NC3CCN(Cc4ccccn4)CC3)n2)c(C)n1, the Potency is reported as inconclusive: 22.4 µM [inhibitor, partial curve].
For CCN(C(=O)C1CCN(S(=O)(=O)c2ccc3c(c2)CCCN3C(=O)C2CCC2)CC1)c1cccc(C)c1, the Potency was inconclusive: 22.4 µM [inhibitor, partial curve, poor fit].
With O=C(NCCc1ccco1)C1CC(=O)N(c2n[nH]c3ccccc23)C1 (stereo not drawn) the Potency was “inactive”.
With O=C(CCC1CCN(c2cc(NC3CC3)ncn2)CC1)Nc1ccccc1 the Potency was inconclusive: 8.91 µM [inhibitor, full curve, poor fit].
With CCN1CCN(CCCNC(=O)CN2CC3CC(C2)[C@H]2CCCC(=O)N2C3)CC1 (stereo partly drawn) the Potency was inconclusive: 25.1 µM [inhibitor, single point].
With O=C(c1ccc(Br)cc1)N1CCN(c2cc(-c3ccc(Cl)cc3)[nH]n2)CC1 the Potency was inconclusive: 25.1 µM [inhibitor, single point].
For O=C(CC1CCOCC1)NCc1ccc(OC(F)(F)F)cc1, the Potency was “inactive”.
With CC(CNC(=O)C1CCN(Cc2cc3ccccc3n2Cc2ccccc2)CC1)c1ccccc1 (stereo not drawn) the Potency was inconclusive: 39.8 µM [inhibitor, single point].
With COc1ccc(-c2cc(C[C@@H]3CC[C@H](O)[C@@H](CN(C)C)O3)no2)cc1 the Potency was “inactive”.
With Cc1c(Cl)cccc1NC(=O)CCn1c(=O)c2cccn2c2ccccc21 the Potency was inconclusive: 2.82 µM [inhibitor, partial curve, poor fit].
In the case of CC(C)CN1C(=O)c2cccn2CC1C(=O)NCCN(C)C1CCCCC1 (stereo not drawn), the Potency is reported as “inactive”.
For CCCc1noc(-c2cccn3c(CNC(=O)c4ccc(C)cc4)nnc23)n1, the Potency was inconclusive: 8.91 µM [inhibitor, partial curve, poor fit].
For O=C1COc2ccc(-c3ccncc3)nc2CN1Cc1ccc(C(F)(F)F)cc1, the Potency was inconclusive: 56.2 µM [inhibitor, single point].
In the case of COc1cc(NC(=O)CCS(=O)(=O)c2nc(-c3cccs3)cc(C(F)(F)F)n2)cc(OC)c1OC, the Potency is reported as inconclusive: 31.6 µM [inhibitor, single point].
In the case of CC(=O)NCC1CCCN(Cc2ccc(-c3ccccc3C#N)o2)C1 (stereo not drawn), the Potency is reported as inconclusive: 10 µM [inhibitor, partial curve, poor fit].
For CC(C)NC(=O)C1CCN(Cc2ccccc2-c2ccccc2F)CC1, the Potency was “inactive”.
With CN(C)C[C@@H]1CN(C2CCOCC2)C[C@H]1NC(=O)c1ccnn1C the Potency was inconclusive: 39.8 µM [inhibitor, single point].
With O=C(Cc1ccccc1)Nc1ccc([C@@H](O)[C@H]2COCC(=O)N2Cc2ccc(C(F)(F)F)cc2)cc1 the Potency was “inactive”.
